This test has as its system NCI-H322M lung. The test can be described thus: inhibition of tumour cell growth, NCI panel, 48 h.

The structures appear in SMILES notation.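 In this assay, cells in 96-well plates receive the compound at five concentrations for 48 hours. Endpoints are linearly interpolated between the surrounding concentrations. At the GI50, growth is halved. The concentration for full growth arrest is given as TGI.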

With `Cc1cc(N=C(N)c2ccccc2)ccc1OCCCCCCCCn1ccnc1`, the GI50 was 0.534 µM and the TGI turned out to be 13.7 µM.

The record behind these values is PubChem BioAssay (NCI).
